Test results: the supplement of paper PMC8728848
The list shows a part of the results.

Experiments:
Assay in all cases: glycan array binding signal (z-score within array); higher = stronger binding
Settings in all cases: glycan notation: IUPAC condensed, linker removed
[1] = target: Gal(b1-4)GlcNAc(b1-3)Gal(b1-4)GlcNAc(b1-3)Gal(b1-4)GlcNAc(b1-3)Gal(b1-4)GlcNAc(b1-2)Man(a1-3)[Gal(b1-4)GlcNAc(b1-3)Gal(b1-4)GlcNAc(b1-3)Gal(b1-4)GlcNAc(b1-3)Gal(b1-4)GlcNAc(b1-2)Man(a1-6)]Man(b1-4)GlcNAc(b1-4)[Fuc(a1-6)]GlcNAc
How it was run: (§1)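 From the Consortium for Functional Glycomics database, 3228 arrays were curated, keeping only those whose protein sequence was available. Binding is given as a within-array Z-score averaged across arrays sharing a protein sequence and across linkers. Negative Z-scores can be read as non-binding.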

[2] = target: Gal(b1-4)GlcNAc(b1-3)Gal(b1-4)GlcNAc(b1-3)Gal(b1-4)GlcNAc(b1-3)Gal(b1-4)GlcNAc(b1-2)[Gal(b1-4)GlcNAc(b1-3)Gal(b1-4)GlcNAc(b1-3)Gal(b1-4)GlcNAc(b1-3)Gal(b1-4)GlcNAc(b1-6)]Man(a1-6)[Gal(b1-4)GlcNAc(b1-3)Gal(b1-4)GlcNAc(b1-3)Gal(b1-4)GlcNAc(b1-3)Gal(b1-4)GlcNAc(b1-2)Man(a1-3)]Man(b1-4)GlcNAc(b1-4)[Fuc(a1-6)]GlcNAc
How it was run: as §1

[3] = target: Gal(b1-4)GlcNAc(b1-3)Gal(b1-4)GlcNAc(b1-3)Gal(b1-4)GlcNAc(b1-3)Gal(b1-4)GlcNAc(b1-3)Gal(b1-4)GlcNAc(b1-2)Man(a1-3)[Gal(b1-4)GlcNAc(b1-3)Gal(b1-4)GlcNAc(b1-3)Gal(b1-4)GlcNAc(b1-3)Gal(b1-4)GlcNAc(b1-3)Gal(b1-4)GlcNAc(b1-2)Man(a1-6)]Man(b1-4)GlcNAc(b1-4)GlcNAc
How it was run: as §1

[4] = target: Gal(b1-4)GlcNAc(b1-3)Gal(b1-4)GlcNAc(b1-3)Gal(b1-4)GlcNAc(b1-3)Gal(b1-4)GlcNAc(b1-3)Gal(b1-4)GlcNAc(b1-2)Man(a1-3)[Gal(b1-4)GlcNAc(b1-3)Gal(b1-4)GlcNAc(b1-3)Gal(b1-4)GlcNAc(b1-3)Gal(b1-4)GlcNAc(b1-3)Gal(b1-4)GlcNAc(b1-2)Man(a1-6)]Man(b1-4)GlcNAc(b1-4)[Fuc(a1-6)]GlcNAc
How it was run: as §1

[5] = target: Gal(b1-4)GlcNAc(b1-3)Gal(b1-4)GlcNAc(b1-3)Gal(b1-4)GlcNAc(b1-3)Gal(b1-4)GlcNAc(b1-3)Gal(b1-4)GlcNAc(b1-2)[Gal(b1-4)GlcNAc(b1-3)Gal(b1-4)GlcNAc(b1-3)Gal(b1-4)GlcNAc(b1-3)Gal(b1-4)GlcNAc(b1-3)Gal(b1-4)GlcNAc(b1-6)]Man(a1-6)[Gal(b1-4)GlcNAc(b1-3)Gal(b1-4)GlcNAc(b1-3)Gal(b1-4)GlcNAc(b1-3)Gal(b1-4)GlcNAc(b1-3)Gal(b1-4)GlcNAc(b1-2)Man(a1-3)]Man(b1-4)GlcNAc(b1-4)[Fuc(a1-6)]GlcNAc
How it was run: as §1

[6] = target: Gal(b1-4)GlcNAc(b1-3)Gal(b1-4)GlcNAc(b1-3)Gal(b1-4)GlcNAc(b1-3)Gal(b1-4)GlcNAc(b1-3)Gal(b1-4)GlcNAc(b1-3)Gal(b1-4)GlcNAc(b1-2)Man(a1-3)[Gal(b1-4)GlcNAc(b1-3)Gal(b1-4)GlcNAc(b1-3)Gal(b1-4)GlcNAc(b1-3)Gal(b1-4)GlcNAc(b1-3)Gal(b1-4)GlcNAc(b1-3)Gal(b1-4)GlcNAc(b1-2)Man(a1-6)]Man(b1-4)GlcNAc(b1-4)GlcNAc
How it was run: as §1

[7] = target: Gal(b1-4)GlcNAc(b1-3)Gal(b1-4)GlcNAc(b1-3)GalNAc
How it was run: as §1

[8] = target: Gal(b1-4)GlcNAc(b1-3)Gal(b1-4)GlcNAc(b1-3)[Gal(b1-4)GlcNAc(b1-3)Gal(b1-4)GlcNAc(b1-6)]GalNAc
How it was run: as §1

[9] = target: Gal(b1-4)GlcNAc(b1-3)Gal(b1-4)GlcNAc(b1-6)[Gal(b1-3)]GalNAc
How it was run: as §1

[10] = target: Gal(b1-4)GlcNAc(b1-3)Gal(b1-4)[Fuc(a1-3)]GlcNAc(b1-3)Gal(b1-4)[Fuc(a1-3)]GlcNAc
How it was run: as §1

[11] = target: Gal(b1-4)GlcNAc(b1-3)GalNAc
How it was run: as §1

[12] = target: Gal(b1-4)GlcNAc(b1-3)[Fuc(a1-3)GlcNAc(b1-6)]Gal(b1-4)Glc
How it was run: as §1

[13] = target: Gal(b1-4)GlcNAc(b1-3)[Gal(b1-4)GlcNAc(b1-6)]Gal(b1-4)GlcNAc
How it was run: as §1

[14] = target: Gal(b1-4)GlcNAc(b1-3)[GlcNAc(b1-6)]Gal(b1-4)GlcNAc
How it was run: as §1

[15] = target: Gal(b1-4)GlcNAc(b1-6)Gal(b1-4)GlcNAc
How it was run: as §1

[16] = target: Gal(b1-4)GlcNAc(b1-6)GalNAc
How it was run: as §1

[17] = target: Gal(b1-4)GlcNAc(b1-6)[Gal(b1-3)]GalNAc
How it was run: as §1

[18] = target: Gal(b1-4)GlcNAc(b1-6)[Gal(b1-4)GlcNAc(b1-3)]GalNAc
How it was run: as §1

Gal(b1-4)GlcNAc6P = target: Gal(b1-4)GlcNAc6P
How it was run: as §1

Gal(b1-6)Gal = target: Gal(b1-6)Gal
How it was run: as §1

Gal3S(b1-3)GalNAc = target: Gal3S(b1-3)GalNAc
How it was run: as §1

Gal3S(b1-3)GlcNAc = target: Gal3S(b1-3)GlcNAc
How it was run: as §1

[19] = target: Gal3S(b1-3)[Fuc(a1-4)]GlcNAc
How it was run: as §1

Gal3S(b1-4)Glc = target: Gal3S(b1-4)Glc
How it was run: as §1

Gal3S(b1-4)Glc6S = target: Gal3S(b1-4)Glc6S
How it was run: as §1

Gal3S(b1-4)GlcNAc = target: Gal3S(b1-4)GlcNAc
How it was run: as §1

[20] = target: Gal3S(b1-4)[Fuc(a1-3)]Glc6S
How it was run: as §1

[21] = target: Gal3S(b1-4)[Fuc(a1-3)]GlcNAc
How it was run: as §1

[22] = target: Gal3S(b1-4)[Fuc(a1-3)]GlcNAc6S
How it was run: as §1

Gal3S4S(b1-4)GlcNAc = target: Gal3S4S(b1-4)GlcNAc
How it was run: as §1

Gal3S6S(b1-4)GlcNAc = target: Gal3S6S(b1-4)GlcNAc
How it was run: as §1

Gal3S6S(b1-4)GlcNAc6S = target: Gal3S6S(b1-4)GlcNAc6S
How it was run: as §1

Gal4S(b1-4)GlcNAc = target: Gal4S(b1-4)GlcNAc
How it was run: as §1

Gal4S6S(b1-4)GlcNAc = target: Gal4S6S(b1-4)GlcNAc
How it was run: as §1

Gal6P(b1-4)GlcNAc = target: Gal6P(b1-4)GlcNAc
How it was run: as §1

Gal6S(b1-3)GlcNAc = target: Gal6S(b1-3)GlcNAc
How it was run: as §1

Gal6S(b1-3)GlcNAc6S = target: Gal6S(b1-3)GlcNAc6S
How it was run: as §1

Gal6S(b1-4)Glc = target: Gal6S(b1-4)Glc
How it was run: as §1

B1: GS7807H-bfa-490-18-490 (Bacteroides fragilis) (protein)
chain: GNLEEMNIDPDNATQTHPKLLLTQICMNAFKRGTDGMYATKKVIQADGESADQYYKWTRGSFGYYDNLRNVQKMGEEAERVNAPVYTALTKFFRAYYFYELTLRFGDIPYSQALKGEKEEIYTPEYDAQEDVFAGILQELREADEILANDASVIDGDIIYNGNSTQWRKLINSFRLKVLMTLSNHTTVGNINIASEFKNIATNSPLMNSLADNGQLVYLDQQGNRYPQFNAQWSGYYMDDTFIQRMRERRDPRLFIFSAQTNKGKTEGKPIDDFSSYEGGDPAAPYSDAIIKVSEGTISPINDRFRTDPIVEPTMLMGYAELQQILAEAVVRGWISGNAQTYYEKGIRASFSFYETHAKDYAGYLNENAVAQYLKEPLVDFTQASGTEEQIERIIMQKYLVTFYQGNWDSFYEQLRTGYPDFRRPAGTEIPKRWMYPQGEYDNNGTNVETAITRQFGAGNDKINQATWWQKKS
glycan array binding signal (z-score) [1]: 2.51
glycan array binding signal (z-score) [2]: 2.08
glycan array binding signal (z-score) [3]: 1.71
glycan array binding signal (z-score) [4]: 2.17
glycan array binding signal (z-score) [5]: 0.502
glycan array binding signal (z-score) [6]: -0.165
glycan array binding signal (z-score) [7]: -0.561
glycan array binding signal (z-score) [8]: -0.095
glycan array binding signal (z-score) [9]: -0.617
glycan array binding signal (z-score) [10]: -0.649
glycan array binding signal (z-score) [11]: -0.83
glycan array binding signal (z-score) [12]: -0.56
glycan array binding signal (z-score) [13]: 1.46
glycan array binding signal (z-score) [14]: 1.12
glycan array binding signal (z-score) [15]: -0.133
glycan array binding signal (z-score) [16]: -0.182
glycan array binding signal (z-score) [17]: -0.405
glycan array binding signal (z-score) [18]: -0.385
glycan array binding signal (z-score) (Gal(b1-4)GlcNAc6P): 0.452
glycan array binding signal (z-score) (Gal(b1-6)Gal): -0.652
glycan array binding signal (z-score) (Gal3S(b1-3)GalNAc): -0.596
glycan array binding signal (z-score) (Gal3S(b1-3)GlcNAc): 0.043
glycan array binding signal (z-score) [19]: 0.008
glycan array binding signal (z-score) (Gal3S(b1-4)Glc): 1.21
glycan array binding signal (z-score) (Gal3S(b1-4)Glc6S): -0.637
glycan array binding signal (z-score) (Gal3S(b1-4)GlcNAc): 0.181
glycan array binding signal (z-score) [20]: 0.47
glycan array binding signal (z-score) [21]: 0.737
glycan array binding signal (z-score) [22]: -0.198
glycan array binding signal (z-score) (Gal3S4S(b1-4)GlcNAc): -0.441
glycan array binding signal (z-score) (Gal3S6S(b1-4)GlcNAc): -0.178
glycan array binding signal (z-score) (Gal3S6S(b1-4)GlcNAc6S): 0.21
glycan array binding signal (z-score) (Gal4S(b1-4)GlcNAc): -0.642
glycan array binding signal (z-score) (Gal4S6S(b1-4)GlcNAc): 0.142
glycan array binding signal (z-score) (Gal6P(b1-4)GlcNAc): -0.329
glycan array binding signal (z-score) (Gal6S(b1-3)GlcNAc): 0.653
glycan array binding signal (z-score) (Gal6S(b1-3)GlcNAc6S): 1.52
glycan array binding signal (z-score) (Gal6S(b1-4)Glc): 0.65
